Assay results: the BET-seq Pho4 binding data (Le et al. 2018)
This is one part of the list. These are noisy estimates, calculated here from bound and input reads.

target: T1, Pho4 (S. cerevisiae) (UniProt P07270); test: relative binding free energy (BET-seq); higher = weaker binding; conditions: reference: library average
T1 sequence: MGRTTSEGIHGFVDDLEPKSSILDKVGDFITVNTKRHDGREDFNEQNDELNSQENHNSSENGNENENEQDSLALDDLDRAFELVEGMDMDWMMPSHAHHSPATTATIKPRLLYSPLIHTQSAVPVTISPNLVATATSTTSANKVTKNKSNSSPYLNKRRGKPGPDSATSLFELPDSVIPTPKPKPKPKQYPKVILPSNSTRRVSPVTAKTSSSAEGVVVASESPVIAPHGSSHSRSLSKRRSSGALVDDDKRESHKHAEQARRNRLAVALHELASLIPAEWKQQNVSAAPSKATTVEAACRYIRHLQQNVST

| Sequence | relative binding free energy |
| --- | --- |
| GGCACCACGTGGTGGG | -0.06 kcal/mol |
| GGAGTCACGTGTTCAG | 0.2 kcal/mol |
| ATTCTCACGTGAGTTG | 0.3 kcal/mol |
| TGGTTCACGTGGCGCG | 0.2 kcal/mol |
| TTTATCACGTGTGGCA | 0.16 kcal/mol |
| TGTGTCACGTGAGAAG | 0.25 kcal/mol |
| GTTATCACGTGAGGCG | 0.3 kcal/mol |
| AGGGACACGTGGTGTG | -0.08 kcal/mol |
| GCTAGCACGTGGGTGC | -0.11 kcal/mol |
| CGTTGCACGTGCGGTT | -0.05 kcal/mol |
| TTTAGCACGTGGGTAC | -0.19 kcal/mol |
| GTTGCCACGTGTGGTC | 0.04 kcal/mol |
| TCAGTCACGTGTTTGT | 0.21 kcal/mol |
| TGGCTCACGTGGTGTC | 0.16 kcal/mol |
| TTCGTCACGTGCGTGA | 0.06 kcal/mol |
| GTATGCACGTGCAGTG | -0.09 kcal/mol |
| GTAGACACGTGGCGTG | 0.03 kcal/mol |
| AAATGCACGTGGCGGT | -0.25 kcal/mol |
| TTATTCACGTGGAAAA | 0.4 kcal/mol |
| AGGGTCACGTGGACGA | 0.07 kcal/mol |
| AATAGCACGTGGCGTT | -0.09 kcal/mol |
| TTTAACACGTGAGTCA | 0.33 kcal/mol |
| AAATGCACGTGGGGGT | -0.2 kcal/mol |
| TAGTGCACGTGGCTAG | -0.12 kcal/mol |
| TCTTTCACGTGATGGG | 0.37 kcal/mol |

| Sequence | relative binding free energy |
| --- | --- |
| TATTGCACGTGAAATG | 0.22 kcal/mol |
| CGTGGCACGTGGTTTT | -0.1 kcal/mol |
| ATTGGCACGTGTGTCT | -0.2 kcal/mol |
| CGTTACACGTGGGGTA | -0.03 kcal/mol |
| TTTAACACGTGTTGAC | 0.09 kcal/mol |
| GTTTACACGTGGTGTT | 0.18 kcal/mol |
| CTTCTCACGTGGTGTG | -0.01 kcal/mol |
| CTGGTCACGTGATTGC | 0.29 kcal/mol |
| ATCTGCACGTGATGTT | 0.06 kcal/mol |
| ATATTCACGTGAGGTT | 0.29 kcal/mol |
| GGGGTCACGTGCGCAG | 0.04 kcal/mol |
| GGTTTCACGTGAGTAG | 0.4 kcal/mol |
| ACTTTCACGTGGGTAT | 0.1 kcal/mol |
| CGTCTCACGTGGGGGG | 0.01 kcal/mol |
| ATGATCACGTGGGTGT | 0.04 kcal/mol |
| TAGGACACGTGTTGCT | 0.09 kcal/mol |
| GGGCTCACGTGAATTT | 0.42 kcal/mol |
| AGTAGCACGTGGGGAT | -0.16 kcal/mol |
| TATGACACGTGAGTTG | 0.26 kcal/mol |
| ACATTCACGTGATGGT | 0.28 kcal/mol |
| TCAGACACGTGGCGGG | 0.03 kcal/mol |
| TAAGGCACGTGTTGCT | -0.17 kcal/mol |
| ATTAACACGTGAGGGC | 0.23 kcal/mol |
| CTTATCACGTGATAGT | 0.29 kcal/mol |
| AGATGCACGTGGTTCG | -0.17 kcal/mol |

| Sequence | relative binding free energy |
| --- | --- |
| CGGATCACGTGTGGGG | 0.2 kcal/mol |
| AATGTCACGTGGTACT | -0.05 kcal/mol |
| GTGCGCACGTGGGTTT | -0.12 kcal/mol |
| TTATACACGTGGCTGG | -0.07 kcal/mol |
| GATTTCACGTGAATAT | 0.47 kcal/mol |
| GTAGGCACGTGGGGGT | -0.2 kcal/mol |
| TTTGCCACGTGGAGAT | -0.03 kcal/mol |
| ATGGGCACGTGGGTAG | -0.17 kcal/mol |
| GGAATCACGTGGGGTT | 0.11 kcal/mol |
| CTTGTCACGTGTGTGA | 0.05 kcal/mol |
| GTGGACACGTGTAGAG | 0.14 kcal/mol |
| TAAGACACGTGGGCGG | -0.25 kcal/mol |
| GGTTACACGTGGGGGG | 0.06 kcal/mol |
| ATCTTCACGTGCGGGT | 0.18 kcal/mol |
| GTTGGCACGTGGATCT | -0.07 kcal/mol |
| CGGTGCACGTGGTGAT | -0.07 kcal/mol |
| GTAGTCACGTGTTGTT | 0.31 kcal/mol |
| GGGCACACGTGTGATG | 0.28 kcal/mol |
| TGGCACACGTGCGGTT | -0.03 kcal/mol |
| TAGGGCACGTGATAGC | -0.05 kcal/mol |
| TGTCTCACGTGCTGTG | 0.03 kcal/mol |
| TGGTACACGTGCCGGT | -0.04 kcal/mol |
| TTATACACGTGATGAG | 0.27 kcal/mol |
| TACAGCACGTGGAGGT | -0.22 kcal/mol |
| GGATGCACGTGGCTTT | 0.04 kcal/mol |

| Sequence | relative binding free energy |
| --- | --- |
| CAGGACACGTGTGGGG | 0.09 kcal/mol |
| GTGGCCACGTGGGTTG | -0.1 kcal/mol |
| GGGCTCACGTGGCGCG | 0.19 kcal/mol |
| TAAGGCACGTGGAAAG | 0.01 kcal/mol |
| CTTTTCACGTGCTTGA | 0.22 kcal/mol |
| TGGGCCACGTGGGGAC | -0.07 kcal/mol |
| CGTATCACGTGTAGGG | 0.23 kcal/mol |
| TTTCTCACGTGGTGCG | 0.08 kcal/mol |
| ATAATCACGTGTAATT | 0.29 kcal/mol |
| GGAGTCACGTGCGTGT | 0.24 kcal/mol |
| CGTGTCACGTGATTGC | 0.21 kcal/mol |
| ATGGCCACGTGCGGTG | -0.24 kcal/mol |
| TAAGTCACGTGGGGTA | -0.17 kcal/mol |
| GGGGTCACGTGACGTG | 0.22 kcal/mol |
| AATTTCACGTGATTAG | 0.3 kcal/mol |
| GAGGGCACGTGACATG | 0.15 kcal/mol |
| GTAGTCACGTGGCAGT | -0.08 kcal/mol |
| CGTCGCACGTGTAGTG | 0.06 kcal/mol |
| ATTTGCACGTGGAAAG | 0.23 kcal/mol |
| TGGTACACGTGGTCTT | -0.02 kcal/mol |
| TGTGACACGTGAATTT | 0.23 kcal/mol |
| TGGTCCACGTGTTTAT | 0.02 kcal/mol |
| TTCTGCACGTGTCTGA | 0.12 kcal/mol |
| TTTGTCACGTGTTGGC | 0.08 kcal/mol |
| AATGTCACGTGGACAT | 0.23 kcal/mol |

| Sequence | relative binding free energy |
| --- | --- |
| TTGTGCACGTGGGTGC | -0.1 kcal/mol |
| GTGTTCACGTGTTCTG | 0.26 kcal/mol |
| TATGGCACGTGGCTTG | -0.29 kcal/mol |
| AATGTCACGTGAAAGG | 0.37 kcal/mol |
| TGTGTCACGTGTATTA | 0.11 kcal/mol |
| TGCTTCACGTGCATGT | 0.27 kcal/mol |
| TTTCGCACGTGGTGGC | -0.02 kcal/mol |
| TGTAGCACGTGGTGCC | -0.14 kcal/mol |
| GATGGCACGTGAATAG | 0.26 kcal/mol |
| CATGGCACGTGGTAGG | -0.24 kcal/mol |
| TTGAACACGTGTTCTG | -0.02 kcal/mol |
| CAGTCCACGTGGTGGT | 0.01 kcal/mol |
| CTAGGCACGTGAGGGA | -0.04 kcal/mol |
| TAATTCACGTGAGTAT | 0.3 kcal/mol |
| ATGGACACGTGGTCTA | -0.09 kcal/mol |
| GGTTACACGTGAATAT | 0.66 kcal/mol |
| ATTATCACGTGATTTT | 0.23 kcal/mol |
| CTTGTCACGTGAGTCG | 0.33 kcal/mol |
| CATTTCACGTGTGTAA | 0.19 kcal/mol |
| TCATTCACGTGTTTTC | 0.31 kcal/mol |
| GTTTCCACGTGCGGGG | 0.01 kcal/mol |
| TCGGACACGTGGGTTG | -0.03 kcal/mol |
| GAGTCCACGTGGTTGG | -0.04 kcal/mol |
| TCAGACACGTGCGGGT | 0.07 kcal/mol |
| CGGGCCACGTGGGATG | -0.22 kcal/mol |

| Sequence | relative binding free energy |
| --- | --- |
| TGGAACACGTGGGGTG | -0.15 kcal/mol |
| ATGTGCACGTGTAGCT | -0.15 kcal/mol |
| GGTGTCACGTGGATAT | 0.19 kcal/mol |
| AGGTACACGTGGGAAA | 0 kcal/mol |
| TAGGACACGTGAGGTA | 0.29 kcal/mol |
| CGGGTCACGTGTTCGT | 0.06 kcal/mol |
| TATTTCACGTGCCTTT | 0.18 kcal/mol |
| AGTGTCACGTGGGTCA | -0.08 kcal/mol |
| GAAGCCACGTGTGGAG | 0.19 kcal/mol |
| CGAGTCACGTGGCTGG | 0.11 kcal/mol |
| ACGATCACGTGTTGTG | 0.04 kcal/mol |
| TGTGTCACGTGTCATA | 0.03 kcal/mol |
| TAAAGCACGTGTTAGT | -0.14 kcal/mol |
| GGGTTCACGTGTAGTA | 0.33 kcal/mol |
| TATGCCACGTGGGCTG | -0.13 kcal/mol |
| ATTCGCACGTGGGTCT | -0.13 kcal/mol |
| GTTATCACGTGCGAGT | 0.27 kcal/mol |
| TTCCTCACGTGAGGTG | 0.36 kcal/mol |
| CTCGCCACGTGGTGGG | -0.13 kcal/mol |
| ATGCTCACGTGTAGTT | 0.19 kcal/mol |
| GGGGACACGTGGTTGC | -0.14 kcal/mol |
